Certain results were filed several times, with different values. The list is limited to them. The source may hold further records. Values that stand side by side seem to repeat one measurement; a mean can stand among them. Positions of bridges follow the written chain, without caps; N, C: chain ends. Non-standard residues stand in square brackets, D forms with d. NMeF = CN[C@@H](Cc1ccccc1)C(=O)O; bMeAla = not defined here; NMeA = CN[C@@H](C)C(=O)O
Molecular target: Regnase-1 (analyte of the surface plasmon resonance competition assay, Example 26) (Homo sapiens (Human)) (UniProt Q5D1E8)
Experiment: SPR, Regnase-1 alone on captured PP7+tag (control)

Binder: [NMeA]NFNSAYYRAIWD[bMeAla]GGTGTGTGT[NMeF]PIT[NMeF]PI-OH (lactam N-13; reading uncertain) [PP7+tag]
- competitiveness index: 0.93, 1.13, 0.99, 0.96 [lines of one column]

— patent US20220125891A1
